According to publication PMC3891622, “The Sphingolipid Receptor S1PR2 Is a Receptor for Nogo-A Repressing Synaptic Plasticity” (PLoS Biology, 2014):

Assays:
Conditions in all cases: one partner purified
[1] = biological target: T1, Nogo-A-ext (rat aa1-979), the entire Δ20-containing extracellular N-terminal domain of Nogo-A (rat, UniProt Q9JK11-1 1-979); assay: BLI; Octet Red; S1PR2 membrane preparations (25 µg/ml) immobilised on amine-reactive biosensors, HBSN buffer with 10 mM MgCl2; Nogo-A-ext serially diluted, 15 min, 1,000 rpm, 30°C; control membranes as reference; apparent equilibrium constant from a nonlinear fit
T1 construct: Nogo-A (Rtn4), rat, residues 1-979; source: HEK293T, transiently transfected, purified (Strep-tactin chromatography)
T1 sequence (looked up): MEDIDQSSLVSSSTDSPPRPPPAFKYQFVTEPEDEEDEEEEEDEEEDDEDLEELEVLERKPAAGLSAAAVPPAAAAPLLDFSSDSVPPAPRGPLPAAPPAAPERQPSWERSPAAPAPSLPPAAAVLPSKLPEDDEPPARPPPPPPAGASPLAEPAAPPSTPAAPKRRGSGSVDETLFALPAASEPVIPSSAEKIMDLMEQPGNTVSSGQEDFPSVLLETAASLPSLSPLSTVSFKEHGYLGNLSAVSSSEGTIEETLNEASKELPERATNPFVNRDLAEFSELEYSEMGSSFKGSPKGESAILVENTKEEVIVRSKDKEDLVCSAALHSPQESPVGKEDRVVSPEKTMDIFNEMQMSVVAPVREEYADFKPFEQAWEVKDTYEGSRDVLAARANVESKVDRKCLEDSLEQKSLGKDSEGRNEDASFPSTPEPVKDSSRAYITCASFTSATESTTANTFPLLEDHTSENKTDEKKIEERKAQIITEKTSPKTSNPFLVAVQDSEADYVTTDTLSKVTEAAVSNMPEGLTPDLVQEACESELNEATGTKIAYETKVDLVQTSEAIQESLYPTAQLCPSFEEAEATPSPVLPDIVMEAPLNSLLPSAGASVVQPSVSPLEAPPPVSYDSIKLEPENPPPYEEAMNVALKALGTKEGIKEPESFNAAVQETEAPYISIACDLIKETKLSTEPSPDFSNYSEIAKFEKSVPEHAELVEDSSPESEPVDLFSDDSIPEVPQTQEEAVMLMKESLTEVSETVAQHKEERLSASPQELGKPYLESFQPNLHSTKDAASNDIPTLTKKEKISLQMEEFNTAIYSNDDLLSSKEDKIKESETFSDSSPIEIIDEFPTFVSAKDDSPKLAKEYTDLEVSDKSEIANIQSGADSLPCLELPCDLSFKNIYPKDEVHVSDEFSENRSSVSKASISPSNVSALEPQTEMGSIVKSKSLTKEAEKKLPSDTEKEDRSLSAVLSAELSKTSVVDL

[2] = biological target: T1, Nogo-A-ext (rat aa1-979), the entire …; assay: BLI; as a5, with 1 µM S1P added together with Nogo-A-ext
[3] = biological target: T1, Nogo-A-ext (rat aa1-979), the entire …; assay: BLI; as a5, with methanol (vehicle control) added together with Nogo-A-ext

Kd [1]: ~142 nM
Kd [2]: ~202 nM
Kd [3]: ~192 nM
B1: Recombinant full length S1PR2 in membrane preparations (receptor, UniProt O95136 1-353, looked up)
chain: MGSLYSEYLNPNKVQEHYNYTKETLETQETTSRQVASAFIVILCCAIVVENLLVLIAVARNSKFHSAMYLFLGNLAASDLLAGVAFVANTLLSGSVTLRLTPVQWFAREGSAFITLSASVFSLLAIAIERHVAIAKVKLYGSDKSCRMLLLIGASWLISLVLGGLPILGWNCLGHLEACSTVLPLYAKHYVLCVVTIFSIILLAIVALYVRIYCVVRSSHADMAAPQTLALLKTVTIVLGVFIVCWLPAFSILLLDYACPVHSCPILYKAHYFFAVSTLNSLLNPVIYTWRSRDLRREVLRPLQCWRPGVGVQGRRRGGTPGHHLLPLRSSSSLERGMHMPTSPTFLEGNTVV
notes: Sphingosine 1-phosphate receptor 2, full length, in membranes of overexpressing cells; also called sphingosine 1-phosphate receptor 2; S1PR2-overexpressing membranes; source: bought: Millipore, recombinant S1PR2 membrane preparations
